Results: PubChem BioAssay (NCATS)
The inconclusive results got no clear call from the source; some entries with a clear call stand among them for comparison. For part of these data: Potencies of inconclusive entries are left out as doubtful fits. Active and inactive are the calls of the source. Unless noted, calls come from the whole dose curve; as a rule, active = well fitted curve in the direction sought with a large enough effect; inconclusive = small, poorly fitted or top-dose-only effect, or another doubt; inactive = no such curve, though single readings can be large; an effect the other way counts as inactive or inconclusive.

What was measured:
[1] = qHTS for Inhibitors of Plasmodium falciparum (7G8) proliferation (AID 504316); note: nearly all actives have a fitted effect of over 65% in size; note: potency is the fitted concentration of half-maximal effect;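 for activity change, negative = inhibition: 0% = DMSO vehicle and -100% = 0.29 µM artemisinin full kill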; details: P. falciparum 7G8 in erythrocytes, SYBR Green DNA, 72 h; activity change, negative = inhibition: at 6.7 µM (top of the series)
Summary of the method: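 Erythrocytes infected with P. falciparum line (0.3% parasitemia, 2.5% hematocrit final) incubated with compounds 72 h at 37 °C, 5% CO2; SYBR Green lysis buffer added, fluorescence read next day. Normalized to 0.29 uM artemisinin and DMSO.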

[2] = biological target: Thioredoxin reductase 1, cytoplasmic (Rattus norvegicus) (UniProt O89049); assay: qHTS Assay for Substrates of Mammalian Selenoprotein Thioredoxin Reductase 1 (TrxR1) (AID 488772);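 note: NADPH fluorescence in the first read after selenite addition and not the 8 min delta; a drop in NADPH fluorescence below the no-compound background marks a TrxR1 substrate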; note: potency is the fitted concentration of half-maximal effect
Chain of UniProt O89049 (O89049 whole entry, looked up): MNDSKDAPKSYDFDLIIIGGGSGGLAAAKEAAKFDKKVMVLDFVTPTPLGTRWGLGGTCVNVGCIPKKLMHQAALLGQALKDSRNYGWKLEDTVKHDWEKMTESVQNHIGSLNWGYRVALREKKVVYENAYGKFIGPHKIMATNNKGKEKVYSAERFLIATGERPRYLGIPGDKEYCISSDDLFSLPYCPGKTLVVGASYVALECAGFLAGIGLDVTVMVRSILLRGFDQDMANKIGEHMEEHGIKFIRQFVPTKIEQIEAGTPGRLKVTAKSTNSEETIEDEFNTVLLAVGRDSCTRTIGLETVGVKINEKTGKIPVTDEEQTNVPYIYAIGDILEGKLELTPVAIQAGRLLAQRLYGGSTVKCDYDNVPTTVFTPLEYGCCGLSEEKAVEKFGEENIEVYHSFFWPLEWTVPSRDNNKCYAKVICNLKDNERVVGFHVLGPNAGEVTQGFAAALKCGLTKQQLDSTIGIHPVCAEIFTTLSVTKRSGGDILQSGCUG
Summary of the method: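 Quantitative HTS in Tris-HCl buffer at pH 7.5 with EDTA and Tween-20, using rat TrxR1, 400 uM NADPH and 400 uM selenite (final). A fall in initial NADPH fluorescence relative to background marked substrate behaviour.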

[3] = biological target: Glucagon-like peptide 1 receptor (Homo sapiens) (UniProt P43220); assay: qHTS of GLP-1 Receptor Agonists: LOPAC Validation (AID 624148); details: GLP-1R agonist cell assay; activation: at 46.1 µM (top of the series);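 note: luminescence from a luciferase reporter switched on by cAMP; 0% is about no effect; higher luminescence signal means agonism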
Chain of UniProt P43220 (P43220 whole entry, looked up): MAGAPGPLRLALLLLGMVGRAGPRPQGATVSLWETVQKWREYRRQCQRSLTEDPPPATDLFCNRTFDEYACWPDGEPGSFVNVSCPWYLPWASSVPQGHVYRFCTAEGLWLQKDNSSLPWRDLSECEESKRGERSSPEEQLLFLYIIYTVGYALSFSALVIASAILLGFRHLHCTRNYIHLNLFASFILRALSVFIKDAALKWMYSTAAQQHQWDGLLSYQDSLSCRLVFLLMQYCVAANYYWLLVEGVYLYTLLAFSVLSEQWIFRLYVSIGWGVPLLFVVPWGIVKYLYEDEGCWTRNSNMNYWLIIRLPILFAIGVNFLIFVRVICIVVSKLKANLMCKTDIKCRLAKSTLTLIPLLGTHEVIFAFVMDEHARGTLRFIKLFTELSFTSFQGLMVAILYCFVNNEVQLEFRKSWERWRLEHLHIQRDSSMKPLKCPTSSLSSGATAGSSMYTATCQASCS
Summary of the method: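 Agonism scored as increased luciferase luminescence driven by cAMP in HEK293 clones carrying GLP-1R. Cells settled 12 hours, received compound for 4-6 hr at 37 deg C, 5% CO2, and were read after 12 min detection reagent at RT.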

[4] = qHTS for Activators of Parkin Expression: LOPAC Validation Assay (NLuc Reporter) (AID 720572; note: potency is the fitted concentration of half-maximal effect;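 for activation: 0% = DMSO and 100% = positive control compound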)
Summary of the method: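 Parkin promoter-driven FLuc/NLuc neuronal reporter cells; 24 h plating, 7-pt dose response, 24 h at 37 C/5% CO2; FLuc then NanoLuc reagent, 10 min each, luminescence; DMSO/positive control normalized.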

[5] = Validation screen for small molecules that induce genotoxicity in human embryonic kidney (HEK293T) cells expressing luciferase-tagged ELG1 (AID 493106); note: potency is the fitted concentration of half-maximal effect
Summary of the method: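 HEK293T cells expressing luciferase-tagged ELG1 were exposed to compound or DMSO vehicle for 16 hr at 37 °C, 5% CO2. Genotoxic stress raises ELG1 levels, so increased luciferase signal after ONE-Glo addition and 30 min at room temperature marks hits.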

[6] = biological target: Glutathione peroxidase 1 (Homo sapiens) (UniProt P07203); assay: Primary qHTS Assay for Inhibitors of Recombinant Selenoprotein Glutathione Peroxidase 1 (GPX1) (AID 1845191); note: nearly all actives have a fitted effect of over 65% in size; note: potency is the fitted concentration of half-maximal effect
Chain of UniProt P07203 (P07203 whole entry, looked up): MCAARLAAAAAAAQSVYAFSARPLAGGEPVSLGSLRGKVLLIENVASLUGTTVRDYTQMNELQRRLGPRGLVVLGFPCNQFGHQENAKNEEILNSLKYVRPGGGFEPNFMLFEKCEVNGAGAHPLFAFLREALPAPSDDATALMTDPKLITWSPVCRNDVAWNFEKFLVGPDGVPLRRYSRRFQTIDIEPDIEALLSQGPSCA
Summary of the method: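 10 nM GPX1 + cpd, 30 min RT; start w/ 1 mM GSH, 0.5 mM cumene hydroperoxide, 0.5 mM NADPH, 100 nM GR, 0.01% BSA; buffer 50 mM Tris-HCl pH 7.5, 2 mM EDTA, 150 mM NaCl; Fl 340/450, 0 & 15 min.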

[7] = AP1 Signaling Pathway (AID 357; active = well fitted curve in either direction with a large enough effect, not every such curve was filed as active; inconclusive = small, poorly fitted or top-dose-only effect, or another doubt;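 note: ME-180 reporter cells stimulated with EGF at its EC50 level; top concentration of the series differs between compounds; % is set by controls: 0 for no effect and ±100 for the full control effect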); details: ME-180 AP-1-bla reporter, EGF-induced, beta-lactamase ratio, 5 h; at 38 µM (top of the series)
Summary of the method: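 AP-1-bla ME-180 cells, Opti-MEM + 0.5% dialyzed FBS, plated overnight 37 °C. Cpd titration + EC50 EGF, 5 h 37 °C. CCF4 2.5 h RT; ex 405, em 460/530 ratio → %activity, AC50.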

[8] = qHTS Assay for Identification of Small Molecule Agonists for Hypoxia Response Element Signaling Pathway (AID 914; active = well fitted activation curve with a large enough effect in the signal ratio, with a control signal flat, not every such curve was filed as active; inconclusive = small, poorly fitted or top-dose-only effect, or effect the other way, or a change in a side signal; the % refers to the signal ratio; note: potency is the fitted concentration of half-maximal effect); details: ME-180 (cervical carcinoma) HRE-bla reporter, beta-lactamase ratio, CoCl2, 17 h; activation: stronger effect = higher value
Summary of the method: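 AC50 values come from titration-series %Activity, taken as the 460/530nm ratio of CCF4 fluorescence (excitation 405nm). CellSensor HRE-bla ME-180 cells were treated 17 hours at 37 C with compound plus an EC50 level of CoCl2.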

[9] = Confirmatory qHTS for small molecule stabilizers of the endoplasmic reticulum resident proteome: Secreted ER Calcium Modulated Protein (SERCaMP) assay (AID 1508628); note: potency is the fitted concentration of half-maximal effect; nearly all actives have a fitted effect of over 40% in size
Summary of the method: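 We seeded SH-SY5Y-GLuc-SERCaMP cells, added compounds (three concentrations in the primary run, eleven up to 76.6 uM in confirmation), incubated 16 h, depleted ER calcium with thapsigargin, and read luciferase 4 h later.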

[10] = Cell Viability qHTS for small molecule stabilizers of the endoplasmic reticulum resident proteome (AID 1508629); details: cell viability counter-screen, 100 nM thapsigargin for final 4 h;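 note: potency is the fitted concentration of half-maximal effect; compound exposure about 46 h in total before the viability read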
[11] = qHTS of Trypanosoma Brucei Inhibitors: LOPAC Validation (AID 624147); note: potency is the fitted concentration of half-maximal effect; for activity change, negative = inhibition: 0% is about no effect
Summary of the method: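 T. brucei PYK with substrate was exposed to pin-transferred compounds across a concentration series, then started with 130 uM ADP (final). After 45 min at room temperature, Kinase-Glo Plus luminescence was read, normalized and curve-fitted.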

[12] = biological target: ATP-dependent DNA helicase Q1 (Homo sapiens) (UniProt P46063); assay: qHTS Validation Assay for Inhibitors of RecQ-Like Dna Helicase 1 (RECQ1) (AID 2353); note: potency is the fitted concentration of half-maximal effect
Chain of UniProt P46063 (P46063 whole entry, looked up): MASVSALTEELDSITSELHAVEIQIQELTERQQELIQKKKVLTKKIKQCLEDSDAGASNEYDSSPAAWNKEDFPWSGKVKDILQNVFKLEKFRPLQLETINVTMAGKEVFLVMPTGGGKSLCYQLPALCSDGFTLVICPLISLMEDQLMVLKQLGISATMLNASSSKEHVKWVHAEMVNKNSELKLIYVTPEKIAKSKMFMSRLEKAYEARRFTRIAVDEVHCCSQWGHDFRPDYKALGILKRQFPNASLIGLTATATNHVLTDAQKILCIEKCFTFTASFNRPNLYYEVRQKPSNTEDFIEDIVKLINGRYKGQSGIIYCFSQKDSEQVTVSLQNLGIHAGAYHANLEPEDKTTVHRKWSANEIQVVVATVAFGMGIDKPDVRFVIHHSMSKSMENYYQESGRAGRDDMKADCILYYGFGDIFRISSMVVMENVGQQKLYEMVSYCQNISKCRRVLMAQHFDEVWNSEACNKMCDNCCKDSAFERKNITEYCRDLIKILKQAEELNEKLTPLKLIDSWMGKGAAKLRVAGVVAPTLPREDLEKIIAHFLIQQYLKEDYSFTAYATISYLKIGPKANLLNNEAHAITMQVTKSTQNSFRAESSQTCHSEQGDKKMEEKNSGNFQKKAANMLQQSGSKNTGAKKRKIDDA
Summary of the method: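 50 nM RECQ1T1 preincubated 15 min with compound in Tris pH 8.0 buffer with MgCl2, DTT, Tween-20 and 2.5 ug/ml poly(dI-dC); started with 200 nM TAMRA/BHQ-2 forked duplex and 2 mM ATP. Unwinding read as fluorescence (525/598 nm), two reads 2 h apart.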

[13] = Primary qHTS for inhibitors of La Crosse Virus (LACV) - induced cell death in SH-SY5Y cells (AID 1508616); note: potency is the fitted concentration of half-maximal effect;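 for activity change: top concentration of the series differs between compounds; 0% = infected DMSO wells and 100% = uninfected DMSO wells; higher means more rescue of cells from virus-induced death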
Summary of the method: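 Luminescent ATP readout (ATPLite 1step, 5 min room temperature) measured rescue from LACV-induced death after 6 days of infection at 0.01 MOI; normalized to infected DMSO wells and uninfected DMSO wells.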
Tags give direction and shape of the fitted curve or compound fluorescence and quenching.

In the case of `COC(=O)N1CCc2cc(OC)c(OC)cc2C1Cc1ccc(OC)cc1` (stereo not drawn), the Potency [1] is reported as “inactive”.

For `COC(=O)CCCC1=CC2=C(c3ccccc3)C(=O)C(C)(OC(=O)C3CCCC3)C(=O)C2=CN1CCc1ccccn1` (stereo not drawn), the Potency [1] was “inactive”.

For `CCCCn1c(C)cc2c(c1=O)[C@H]1O[C@](c3ccsc3)(Cc3ccccc31)O2`, the Potency [1] was active: 1.69 µM.

For `C=CCN1C(=O)CC[C@@]23C1=NC(C(=O)OC)=C(C(=O)OC)[C@@H]2N(CC=C)c1ccccc13`, the Potency [1] was inconclusive [inhibitor, partial curve, poor fit].

With `CC1(OC(=O)C2CCCC2)C(=O)C=C2C=C3CCCCN3C=C2C1=O` (stereo not drawn) the Potency [1] was “inactive”.

In the case of `C=CCOC(=O)N[C@H](C(C(=O)OC)=C(C)NCc1ccccc1)c1cccc(C(F)(F)F)c1`, the Potency [1] is reported as “inactive”.

In the case of `CCC(=O)OC1(C)C(=O)C=C2C=C(CCCCNC(=O)OC(C)(C)C)OC=C2C1=O` (stereo not drawn), the Potency [1] is reported as “inactive”.

For `CC(C)OC(=O)CC(NC(=O)OC(C)(C)C)c1ccccc1` (stereo not drawn), the Potency [1] was “inactive”.

In the case of `NS(=O)(=O)c1cccc2c1c([N+](=O)[O-])cc1nc(O)c(O)nc12`, the Potency [2] is reported as inconclusive [inhibitor, partial curve].

With `c1ccc2c(c1)CC(N1CCN(c3cccc4c3OCCO4)CC1)C2` the Potency [2] was “inactive”.

With `COc1cc(CC(=O)O)ccc1O` the Potency [3] was “inactive”.

For `O=C(O)c1cc2cc(Cc3cccnc3)ccc2o1`, the Potency [4] was “inactive”.

For `CCCn1c(=O)c2[nH]c(-c3ccc(S(=O)(=O)O)cc3)nc2n(CCC)c1=O`, the Potency [5] was “inactive” and the Potency [6] was inconclusive [inhibitor, partial curve].

With `CCCCOC(=O)NS(=O)(=O)c1sc(CC(C)C)cc1-c1ccc(Cn2c(CC)nc3c(C)cc(C)nc32)cc1` the activity change, negative = inhibition [7] was inconclusive: -56.7% [inhibitor], the Potency [8] was inconclusive [inhibitor, partial curve, poor fit] and the Potency [2] was inconclusive [inhibitor, single point]. The Potency [4] was inconclusive [activator, single point], the Potency [9] was active: 15.8 µM and the Potency [10] was inconclusive [rising, full curve].

With `CN(C)C(=O)/N=N/C(=O)N(C)C` the Potency [11] was inconclusive [inhibitor, partial curve] and the Potency [3] was “inactive”.

For `O=C(O)C1=CC(=C(c2ccc(O)c(C(=O)O)c2)c2ccc(O)c(C(=O)O)c2)C=CC1=O`, the Potency [8] was inconclusive [inhibitor, partial curve], the Potency [12] was inconclusive [inhibitor, partial curve, poor fit] and the Potency [11] was “inactive”. For the same compound, the Potency [6] was inconclusive [inhibitor, partial curve, poor fit].

With `Nc1ccc(-c2nc3ccc(-c4nc5ccc(N)cc5[nH]4)cc3[nH]2)cc1` the Potency [12] was active: 8.91 µM and the Potency [13] was inconclusive [inhibitor, partial curve, poor fit].

For `N[C@@H](CCC(=O)N[C@H](CSN=O)C(=O)NCC(=O)O)C(=O)O`, the Potency [2] was “inactive” and the Potency [13] was “inactive”.

With `Nc1ccc2c3c(cccc13)C(=O)NC2=O` the Potency [12] was inconclusive [inhibitor, single point], the Potency [5] was inconclusive [activator, partial curve, poor fit] and the Potency [6] was “inactive”.
